Substitutions are numbered along the chain they refer to; changes in the protein carry UniProt numbers. This is one part of the list.
T1: RBFOX1 RRM RbFoxmut (Fox-RRM*) (Homo sapiens, UniProt Q9NWB1 109-208, R118D;E147R;N151S;E152T)
T1 sequence: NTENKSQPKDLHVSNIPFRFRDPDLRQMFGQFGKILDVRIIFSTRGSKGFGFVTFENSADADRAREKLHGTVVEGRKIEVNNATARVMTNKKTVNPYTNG

B1: UCUAAGC (DNA:RNA)
RNA: GGGAGACCGGAAUUCAGAUUGUCCUCUAAGCUUAAAUCCCGUCGUAGCCACCA
DNA 1: CAATCTGAATTCCGGTCTCCC
DNA 2: TGGTGGCTACGACGGGATT
B2: UAAAGUG (DNA:RNA)
RNA: B1 RNA with C26A, U27A, A29G, G30U, C31G
DNA 1: CAATCTGAATTCCGGTCTCCC
DNA 2: TGGTGGCTACGACGGGATT
B3: UGGAGUA (DNA:RNA)
RNA: B1 RNA with C26G, U27G, A29G, G30U, C31A
DNA 1: CAATCTGAATTCCGGTCTCCC
DNA 2: TGGTGGCTACGACGGGATT
B4: GGAAUUU (DNA:RNA)
RNA: B1 RNA with U25G, C26G, U27A, A29U, G30U, C31U
DNA 1: CAATCTGAATTCCGGTCTCCC
DNA 2: TGGTGGCTACGACGGGATT
B5: ACCCGCU (DNA:RNA)
RNA: B1 RNA with U25A, U27C, A28C, A29G, G30C, C31U
DNA 1: CAATCTGAATTCCGGTCTCCC
DNA 2: TGGTGGCTACGACGGGATT
B6: GUCCUCG (DNA:RNA)
RNA: GGGAGACCGGAAUUCAGAUUGUCCGUCCUCGUUAAAUCCCGUCGUAGCCACCA
DNA 1: CAATCTGAATTCCGGTCTCCC
DNA 2: TGGTGGCTACGACGGGATT
B7: AUGGUAU (DNA:RNA)
RNA: B6 RNA with G25A, C27G, C28G, C30A, G31U
DNA 1: CAATCTGAATTCCGGTCTCCC
DNA 2: TGGTGGCTACGACGGGATT
B8: AUCGUAG (DNA:RNA)
RNA: B6 RNA with G25A, C28G, C30A
DNA 1: CAATCTGAATTCCGGTCTCCC
DNA 2: TGGTGGCTACGACGGGATT
B9: CCUAGGA (DNA:RNA)
RNA: B1 RNA with U25C, A29G, C31A
DNA 1: CAATCTGAATTCCGGTCTCCC
DNA 2: TGGTGGCTACGACGGGATT
B10: UUAAGGU (DNA:RNA)
RNA: B1 RNA with C26U, U27A, A29G, C31U
DNA 1: CAATCTGAATTCCGGTCTCCC
DNA 2: TGGTGGCTACGACGGGATT
B11: GUACUGC (DNA:RNA)
RNA: B6 RNA with C27A, C30G, G31C
DNA 1: CAATCTGAATTCCGGTCTCCC
DNA 2: TGGTGGCTACGACGGGATT
B12: CGCUCCG (DNA:RNA)
RNA: B6 RNA with G25C, U26G, C28U, U29C
DNA 1: CAATCTGAATTCCGGTCTCCC
DNA 2: TGGTGGCTACGACGGGATT
B13: CUCGCAC (DNA:RNA)
RNA: B6 RNA with G25C, C28G, U29C, C30A, G31C
DNA 1: CAATCTGAATTCCGGTCTCCC
DNA 2: TGGTGGCTACGACGGGATT
B14: AUGAGCG (DNA:RNA)
RNA: B6 RNA with G25A, C27G, C28A, U29G
DNA 1: CAATCTGAATTCCGGTCTCCC
DNA 2: TGGTGGCTACGACGGGATT
B15: UUCAUUU (DNA:RNA)
RNA: B6 RNA with G25U, C28A, C30U, G31U
DNA 1: CAATCTGAATTCCGGTCTCCC
DNA 2: TGGTGGCTACGACGGGATT
B16: CCUAGCG (DNA:RNA)
RNA: B1 RNA with U25C, A29G, G30C, C31G
DNA 1: CAATCTGAATTCCGGTCTCCC
DNA 2: TGGTGGCTACGACGGGATT
B17: GAGAAUA (DNA:RNA)
RNA: B1 RNA with U25G, C26A, U27G, G30U, C31A
DNA 1: CAATCTGAATTCCGGTCTCCC
DNA 2: TGGTGGCTACGACGGGATT
B18: AGGAAAA (DNA:RNA)
RNA: B1 RNA with U25A, C26G, U27G, G30A, C31A
DNA 1: CAATCTGAATTCCGGTCTCCC
DNA 2: TGGTGGCTACGACGGGATT
B19: GUUUGUG (DNA:RNA)
RNA: B6 RNA with C27U, C28U, U29G, C30U
DNA 1: CAATCTGAATTCCGGTCTCCC
DNA 2: TGGTGGCTACGACGGGATT
B20: AUGCAAA (DNA:RNA)
RNA: B6 RNA with G25A, C27G, U29A, C30A, G31A
DNA 1: CAATCTGAATTCCGGTCTCCC
DNA 2: TGGTGGCTACGACGGGATT
B21: UGCGCGA (DNA:RNA)
RNA: B1 RNA with C26G, U27C, A28G, A29C, C31A
DNA 1: CAATCTGAATTCCGGTCTCCC
DNA 2: TGGTGGCTACGACGGGATT
B22: CCGACCC (DNA:RNA)
RNA: B1 RNA with U25C, U27G, A29C, G30C
DNA 1: CAATCTGAATTCCGGTCTCCC
DNA 2: TGGTGGCTACGACGGGATT
B23: UGGAUUG (DNA:RNA)
RNA: B6 RNA with G25U, U26G, C27G, C28A, C30U
DNA 1: CAATCTGAATTCCGGTCTCCC
DNA 2: TGGTGGCTACGACGGGATT
B24: CCAAGGU (DNA:RNA)
RNA: B1 RNA with U25C, U27A, A29G, C31U
DNA 1: CAATCTGAATTCCGGTCTCCC
DNA 2: TGGTGGCTACGACGGGATT
B25: GUUAGAG (DNA:RNA)
RNA: B6 RNA with C27U, C28A, U29G, C30A
DNA 1: CAATCTGAATTCCGGTCTCCC
DNA 2: TGGTGGCTACGACGGGATT
B26: GUUAUGC (DNA:RNA)
RNA: B1 RNA with U25G, C26U, A29U
DNA 1: CAATCTGAATTCCGGTCTCCC
DNA 2: TGGTGGCTACGACGGGATT
B27: UGUACUC (DNA:RNA)
RNA: B1 RNA with C26G, A29C, G30U
DNA 1: CAATCTGAATTCCGGTCTCCC
DNA 2: TGGTGGCTACGACGGGATT
B28: AGGUAAC (DNA:RNA)
RNA: B1 RNA with U25A, C26G, U27G, A28U, G30A
DNA 1: CAATCTGAATTCCGGTCTCCC
DNA 2: TGGTGGCTACGACGGGATT
B29: ACUAGGU (DNA:RNA)
RNA: B1 RNA with U25A, A29G, C31U
DNA 1: CAATCTGAATTCCGGTCTCCC
DNA 2: TGGTGGCTACGACGGGATT
B30: CCUCCAG (DNA:RNA)
RNA: B6 RNA with G25C, U26C, C27U, U29C, C30A
DNA 1: CAATCTGAATTCCGGTCTCCC
DNA 2: TGGTGGCTACGACGGGATT
B31: ACAGAUG (DNA:RNA)
RNA: B1 RNA with U25A, U27A, A28G, G30U, C31G
DNA 1: CAATCTGAATTCCGGTCTCCC
DNA 2: TGGTGGCTACGACGGGATT

These binders were tested against T1, RBFOX1 RRM RbFoxmut (Fox-RRM*) (assay: EMSA; HiTS-Eq, 1 nM pool, 10 min; buffer printed only for the single-RNA assays: 10 mM Tris pH 7.5, 150 mM NaCl, 3.4 mM EDTA, 0.001% NP-40, 30 C). Details: tags: His6 N-terminal (pET28a); label: 5' 32P.
How it was run: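 Purified RbFox RRM, wild type or mutant, was incubated for 10 min in 50 µL with 1 nM of a 5′-radiolabelled RNA pool carrying 7 randomized nucleotides, whose flanks were annealed to DNA oligonucleotides, over a series of increasing protein concentrations. Unbound RNA was resolved on 8% native PAGE, cut out, reverse-transcribed, barcoded by PCR and sequenced on an Illumina HiSeq 2500. Relative association constants were derived from changes in read counts for each RNA species versus the control reaction and normalised to the cognate motif.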
In the case of B1, the binding signal is reported as 0.102 KA relative to UGCAUGU.
With B2 the binding signal was 0.12 KA relative to UGCAUGU.
With B3 the binding signal was 0.168 KA relative to UGCAUGU.
With B4 the binding signal was 0.0957 KA relative to UGCAUGU.
For B5, the binding signal was 0.0816 KA relative to UGCAUGU.
B6 was tested, and the binding signal was 0.114 KA relative to UGCAUGU.
With B7 the binding signal was 0.211 KA relative to UGCAUGU.
In the case of B8, the binding signal is reported as 0.176 KA relative to UGCAUGU.
For B9, the binding signal was 0.0816 KA relative to UGCAUGU.
B10 was tested, and the binding signal was 0.0813 KA relative to UGCAUGU.
For B11, the binding signal was 0.0789 KA relative to UGCAUGU.
In the case of B12, the binding signal is reported as 0.0874 KA relative to UGCAUGU.
B13 was tested, and the binding signal was 0.11 KA relative to UGCAUGU.
With B14 the binding signal was 0.197 KA relative to UGCAUGU.
In the case of B15, the binding signal is reported as 0.0915 KA relative to UGCAUGU.
B16 was tested, and the binding signal was 0.116 KA relative to UGCAUGU.
In the case of B17, the binding signal is reported as 0.152 KA relative to UGCAUGU.
With B18 the binding signal was 0.0979 KA relative to UGCAUGU.
For B19, the binding signal was 0.462 KA relative to UGCAUGU.
B20 was tested, and the binding signal was 0.0951 KA relative to UGCAUGU.
B21 was tested, and the binding signal was 0.0898 KA relative to UGCAUGU.
B22 was tested, and the binding signal was 0.0683 KA relative to UGCAUGU.
In the case of B23, the binding signal is reported as 0.526 KA relative to UGCAUGU.
In the case of B24, the binding signal is reported as 0.1 KA relative to UGCAUGU.
For B25, the binding signal was 0.13 KA relative to UGCAUGU.
With B26 the binding signal was 0.21 KA relative to UGCAUGU.
In the case of B27, the binding signal is reported as 0.0695 KA relative to UGCAUGU.
With B28 the binding signal was 0.0778 KA relative to UGCAUGU.
B29 was tested, and the binding signal was 0.117 KA relative to UGCAUGU.
B30 was tested, and the binding signal was 0.101 KA relative to UGCAUGU.
With B31 the binding signal was 0.138 KA relative to UGCAUGU.

From PMC9911399, “Two distinct binding modes provide the RNA-binding protein RbFox with extraordinary sequence specificity”
